In the supplement of paper PMC11417369:
The list shows a part of the results.

tested on: PfHDP1 homeodomain (GST-tagged); test: gcPBM binding intensity (ln(normalized median fluorescence intensity)); higher = stronger DNA binding
In short: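 Binding intensity is the highest Masliner-normalised natural-log median intensity over replicate spots in either probe orientation. To obtain it, GST-tagged P. falciparum DNA-binding domains made in E. coli were incubated for 1 h on an Agilent 4 × 180k array of primer-extended double-stranded 36-bp intergenic genomic probes plus negative controls. Detection used Alexa488 anti-GST antibody with scanning at 488 nm.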

| Sequence | gcPBM binding intensity (ln) |
| --- | --- |
| CACTTTTTTTAAATGTGTACGTATATGAAAATATCA [XGTACX_site4854] | 6.38 |
| ATATACATATCATGTAGTACAATTTTTTTACTTTTT [XGTACX_site7988] | 6.14 |
| GAACCATTTTTTGGTATACACACGTAATTATAGAAT [CACACA_site1851] | 6.55 |
| TACAAAAAATTATGGAGTACATATATAATATACAAT [XGTACX_site1004] | 6.41 |
| TGAATACATAAATATAGTACATATATATATATATTA [XGTACX_site8756] | 6.3 |
| AGATCATAATATTATACACACATTATGTATATGTAA [CACACA_site1490] | 6.77 |
| TATAATATTATTTGAAGTACAAACATAAAAGAATTA [XGTACX_site3161] | 6.26 |
| TAATTAACCTATGCATTCATATAGATACATAAATAT [CACACA_negctrl_site885] | 6.65 |
| GTTTCTATTCACATTTTACACACGTCCATCGCATTT [CACACA_site9142] | 7.58 |
| ACCAAATTATCAAATGGTACACATAAAATAATAAAA [XGTACX_site865] | 6.47 |
| TTTTGTTGTATGATAATTCTTTTATCAATATGTCTT [TGCATGCA_negctrl_site567] | 6.14 |
| TAATTTTTTTTTTTTTTTCATTCTTTTCCTTTGATT [CACACA_negctrl_site1365] | 5.93 |
| TTTATATAATTTTTTTGTACATATATATGAATACAT [XGTACX_site2316] | 6.7 |
| ATAGTACAACAGGTTCTTGACAAACAATATGAATGT [GTGCAC_negctrl_site442] | 6.39 |
| ATATACTCATTTAATACACACAAAGAGAAAATTAAT [CACACA_site1923] | 6.73 |
| ATATATATATATATGGTGCATGAAAATTTACTTTGA | 9.67 |
| GATATTTGTTCATATACACACTTTTGATAAAATATG [CACACA_site4807] | 6.66 |
| TATATTTTCCTGCAAACACACATATAAATGGGTAGA [CACACA_site4451] | 6.51 |
| TTTTTTTTTTTTGGTAGTACATAATATTAATATAAT [XGTACX_site4422] | 6.33 |
| CCCCTTGTGGATTCTACACACAAAAAGTCGTCAAAA [CACACA_site821] | 6.35 |
| GAATTCCTTTGTGTATGTACATAATGATATTATTTT [XGTACX_site7369] | 6.64 |
| TGATCAAATAAGTTTGCATGTCAACAATGCATATAT [TGCATGCA_site1025] | 6.73 |

| Sequence | gcPBM binding intensity (ln) |
| --- | --- |
| TAATTTTTTAAACACACACACATATATATATATATA [CACACA_site4230] | 9.46 |
| TACTTTTATAAAAATTTTATCAAATTCTATATATGT [TGCATGCA_negctrl_site308] | 6.31 |
| TTTTAAATTTAGTGTAGTACACTTTTTTCAAATATA [XGTACX_site4659] | 6.54 |
| ATATAATTCAAATACAGTACATATACAATATATACA [XGTACX_site1191] | 6.26 |
| ATATTATCATTTTTTTTAATGGAAAAAAAAAAAAAA [CACACA_negctrl_site1298] | 6.41 |
| ATATATATAAAAGAAACAACATTTATTCAAAAGGTA [CACACA_negctrl_site749] | 6.2 |
| TTATTCTTTTAATATACACACTTTGTCTTTTCGCGC [CACACA_site5525] | 6.7 |
| TACATATTTATATACACACACACACGGATATTTATA [CACACA_site7239] | 7.05 |
| ATTCAAAAGATGTATACACACATGTGGATAATATAA [CACACA_site2443] | 7.19 |
| GCACCCTGTATGAATGCACACATTCATAGAATTGCT [CACACA_site5475] | 9.43 |
| AATAACAAAATAGGCACACGCACATATATATATATA [CACACA_site1497] | 9.35 |
| TATTTTTCTTTTTAAAAATATATCACATGAACATTA [XGTACX_negctrl_site183] | 6.12 |
| ACATATAAGATTATGTGTCCACAAAAAAATAAAACA [XGTACX_site2867] | 6.61 |
| TTTTATGTTCTTAATGCACACTTATAAGTATCTTAT [CACACA_site4895] | 10.6 |
| TTTTTTTATTATTCTTATATAAAAATTTTTTTTAAT [CACACA_negctrl_site159] | 6.12 |
| TTTTTAATAACACTTTTGAAAAATAAAATAAAATAA [CACACA_negctrl_site821] | 6.23 |
| CATATCTCAATTTATGCATGCAGGATTTTTCTAATA [TGCATGCA_site516] | 6.58 |
| ACACAAAAAAAAAAAAAAAAAAAAAAAAAAAAGGAA [CACACA_negctrl_site1162] | 5.78 |
| AATATGTACAGACATACACACATATATATATATATA [CACACA_site1222] | 9.32 |
| TTTTTTTTTTTTTGGTGTACATTTATAAAAAAAAAA [XGTACX_site8368] | 6.42 |
| AATAATATAACAGAACAAAACTAAATATACACATAT [TGCATGCA_negctrl_site31] | 6.81 |
| TATTTCATAATAAATTGTACGCGTAGAAAACCATGA [XGTACX_site7506] | 7.3 |

| Sequence | gcPBM binding intensity (ln) |
| --- | --- |
| AAAAAAAAAAAAAACACACACACACGCATACAAAAT [CACACA_site6794] | 6.83 |
| ATATTTTTCTTAAGTACACACTAAATAGAAACTAAA [CACACA_site4191] | 6.45 |
| ATTAATTATATAATATGTACATATTACAAATATATA [XGTACX_site1478] | 6.55 |
| TTATATCTTATAAAATGTACATAAAATATATAATAT [XGTACX_site7647] | 6.4 |
| AACACTTCATACACGTGTACAAATATAATATAGACA [XGTACX_site5671] | 7.02 |
| GGAAATAATATTATTACACACCAAAATGTATAAAAA [CACACA_site4036] | 6.28 |
| AAAATATTCACGTGTACATATATATATATATATTAT [TGCATGCA_negctrl_site192] | 6.96 |
| CTAATTAATGGGTACATACACACATATATACATACA [CACACA_site743] | 6.55 |
| ATATTAAAATTAAACGCATGCATATATTATAAAAGA [TGCATGCA_site231] | 6.85 |
| TTCTGTATAACACAAATTTTTTTTTATTCACTCTGT [TGCATGCA_negctrl_site410] | 6.41 |
| TTTTTATCAAATAAATGTACACATATTAAATGAAAT [XGTACX_site555] | 6.6 |
| TTTGTAAGAAATAAATGTACAAAAATTAATTTTTAT [XGTACX_site8983] | 6.21 |
| GAAATTAAATGACATACACACTATATTATAGATTTT [CACACA_site7468] | 6.23 |
| ATATTTAAAAAATGATGTACAAAAATGTAGTCACAC [XGTACX_site6208] | 6.43 |
| TATTTTAATGAATTCACACATATAATTTATTTTATA [CACACA_site4538] | 6.41 |
| GACATAAAATTCAAAGTGCATAAATAAAATAAACCC | 8.73 |
| TTTTTTTTTTTTTTCTGTACAAATTAAATCTACATA [XGTACX_site8285] | 6.65 |
| AAAATACATAGACACACACACACACGGATATAAATA [CACACA_site7643] | 6.78 |
| AATATATATTAATAAAGTACAGGAAATATTTTTACC [XGTACX_site7052] | 7.13 |
| TACTAAAAAATATAAACACACATATATTTTACATAT [CACACA_site2042] | 6.41 |
| TTTAATTTGATAGACACATGCACACGTGCAATACTT [TGCATGCA_site777] | 10.9 |
| ATATATATATATAAATGTACAGATATATTTTTTATT [XGTACX_site5445] | 8.96 |

| Sequence | gcPBM binding intensity (ln) |
| --- | --- |
| ATAGTATCTGGTAGCTGTACGAGTCGTAGAGTGTAA [XGTACX_site4936] | 6.84 |
| ATATAAAACTAATTTCTTTTTCTCCTTTTATTTTGT [CACACA_negctrl_site1251] | 6.05 |
| TTAATGTTATATGTGTGTACATATAAGTTTAGTAAA [XGTACX_site4651] | 6.53 |
| TTTTTTTTTTCATTAACACACATAAATATATATATA [CACACA_site5759] | 7.99 |
| TGATTAATAATTTTCTTCATACATTAAACATCTTTT [TGCATGCA_negctrl_site342] | 6.07 |
| CACTAATAGTGGATTACACACATATATCTGTATTTA [CACACA_site5403] | 6.25 |
| TATGTATATTTTAATTGTACGTGTATGGTTGTAAAT [XGTACX_site8738] | 6.88 |
| GAGAAAAATAAATACACACACATAAATAAATACATA [CACACA_site5102] | 6.81 |
| CATGAATATTTATACATGCACACTAAAATAAAGAAT [CACACA_site2412] | 7.78 |
| GAGGGTATAATAAAAGCACACACAAAGATATAAATA [CACACA_site9087] | 6.9 |
| GAAAATATTACATACACGCACACATTAATATATTTA [CACACA_site2604] | 7.15 |
| ACATTTTGTAAAGAATGTACATATATATATATATTC [XGTACX_site8004] | 6.56 |
| TATATATATATATACACACACACACCCCAAAGCGTA [CACACA_site64] | 9.26 |
| AAAAAATGCGACATGTGTACACATATATATATATAT [XGTACX_site1679] | 9.26 |
| CAGTAGTTTTTATGGGTGCAAAACATATATATAACA | 9.47 |
| ATATATATATCAAAATGTACAAAAATAGAATTTAAA [XGTACX_site8292] | 7.58 |
| TACACCCACCAACACACACACACACTAATAAAAAAA [CACACA_site8060] | 7.1 |
| AAAATTAAAATATCACGTACGAAGAAAAAATTAAGA [XGTACX_site6437] | 6.43 |
| CCTTTCCTAGCACATGCACACAAAAAAAAAAAAAAA [CACACA_site8396] | 8.87 |
| AATACATATGGGTGTACACATTATATATATATATAT [CACACA_site4601] | 9.3 |
| AAACGGCTATTAAAATGTACATGTAAATATATTAAA [XGTACX_site918] | 6.66 |
| ATCTTTTTACTTAATACACACACACCCAAAAAAAAA [CACACA_site8221] | 7.33 |
